The campaign covered roughly 52,000 compounds. About 1,700 (3.3%) were called active. Cut-off read from the data, not from the text of the source: active = survival mostly below about 52% (no sharp cut-off); inactive = mostly above about 56%. The list shows a part of the results.

This experiment concerns Wild type. Briefly: S. aureus survival, RN4220 and DeltatarO strains – OD600, teichoic acid synthesis inhibitors, primary screen (AID 463173). The conditions noted are these: S. aureus RN4220 wild type/DeltatarO growth, OD600, 18 h, stronger effect = lower value, screened at 18.75 µg/mL (by protocol).
In the case of `Cc1c(Cl)cccc1NC(=O)CN1C(=O)COc2ccc(S(=O)(=O)N3CCCCCC3)cc21`, the survival was inactive: 83%.

As to `COc1cccc(CNC(=O)CSc2ncc3c(n2)-c2cc(Cl)ccc2N(C)S3(=O)=O)c1`, the survival is inactive: 83%.

On to `CCCCOc1ccc(C2(C(=O)O)CCCC2)cc1`, for which the survival was inactive: 105%.

Take `CCc1ccc(NC(=O)c2ccc(F)c(S(=O)(=O)NC3CCCCCC3)c2)cc1`: the survival is active: -4%.

Turning to `O=C(N/N=C/c1ccc(F)cc1)c1ccc(NC(=O)C2CC2)cc1`, the survival was inactive: 108%.

As for `Cc1ccc(Cl)cc1-n1c(=O)c2sc3ccccc3c2n(CC(=O)NC2CCCCC2)c1=O`, the survival was inactive: 82%.

`COc1ccc(CNC(=O)Cn2c(=O)oc3cc(S(=O)(=O)N4CCC(C)CC4)ccc32)cc1`: the survival is inactive: 133%.

Consider `COc1cccc(CNC(=O)CN2C(=O)CSc3c2c(C)nn3-c2ccccc2)c1OC`, for which the survival was inactive: 83%.

As to `Cc1cccc(C)c1NC(=O)c1nc(S(C)(=O)=O)ncc1N(Cc1ccc(F)cc1)Cc1ccco1`, the survival is inactive: 87%.

Take `CCOC(=O)c1cnc2c(C)cc(C)cc2c1NCCc1ccc(OC)c(OC)c1`: the survival was inactive: 75%.

In the case of `COc1ccc(N(C(=O)c2snc(C(N)=O)c2N)C(C(=O)NCc2ccc(F)cc2)c2ccc(C)o2)c(OC)c1` (configuration not stated), the survival was inactive: 118%.

Turning to `Cc1ccc2c(CC(=O)NCc3ccccc3)coc2c1C`, the survival was inactive: 94%.

Turning to `Cc1cc(-c2ccc(C)c(S(=O)(=O)Nc3ccccc3C(F)(F)F)c2)on1`, the survival was inactive: 129%.

Take `COc1ccc(C(=O)N(Cc2ccc(N(C)C)cc2)Cc2ccco2)cc1Cl`: the survival was inactive: 81%.

Take `O=c1c2sc3ccccc3c2n(Cc2ccccc2Cl)c(=O)n1Cc1ccccc1`: the survival is inactive: 70%.

For `Cc1ccc(C)n1-c1c(C(=O)NCC(C)c2ccccc2)sc2ncccc12` (configuration not stated), the survival was inactive: 73%.

Regarding `OC(CNCc1ccccn1)COc1ccc(OCC(O)CNCc2ccccn2)cc1` (configuration not stated), the survival was inactive: 101%.

For `O=C(NCCc1csc(-c2ccc(C(F)(F)F)cc2)n1)C(=O)Nc1cc(F)ccc1F`, the survival is inactive: 81%.

Consider `COc1ccc(C(=O)Oc2c(Sc3ccc(Cl)cc3)c(C)nn2C(C)(C)C)cc1OC`, for which the survival was inactive: 53%.

In the case of `COc1ccc(NC(=O)CCCn2c(=O)c3cccn3c3ccccc32)c(OC)c1`, the survival is inactive: 70%.

Consider `O=C(CCc1ccccc1)NCc1ccco1`, for which the survival is inactive: 98%.

For the compound `CCc1ccccc1NC(=O)Cn1c(=O)n(CCCS(=O)(=O)C2CCCCC2)c(=O)c2ccccc21`, the survival is inactive: 117%.

`O=C(Cn1c(=O)c2ccccc2n(CC(=O)Nc2ccc(Cl)cc2)c1=O)NCCc1ccccc1`: the survival is inactive: 84%.

As to `CCCCN(C)CCNC(=O)C1CCCN(S(=O)(=O)c2ccc3c(c2)oc(=O)n3C)C1` (configuration not stated), the survival was inactive: 83%.

Regarding `CCOC(=O)c1c(C)[nH]c(CCC(=O)NCCCN2CCN(c3cc(Cl)ccc3C)CC2)c1C`, the survival was inactive: 78%.

In the case of `Cc1c(CCNC(=O)Cc2ccc(F)cc2)sc2nc(-c3ccc(F)cc3)nn12`, the survival was inactive: 87%.

Consider `CCOc1ccc(C(=O)Nc2cccc(OCc3cc(=O)n4ccccc4n3)c2)cc1`, for which the survival was inactive: 123%.

Consider `Cc1cccc(CNS(=O)(=O)c2csc(C(N)=O)c2)c1`, for which the survival was inactive: 81%.

With `O=C1C(c2cccc(Br)c2)N(CCc2ccccc2)C(=O)CN1C1CCCCC1` (configuration not stated), the survival is inactive: 99%.

As to `CCOc1cccc(CNCCNC(=O)c2nonc2N)c1`, the survival is inactive: 75%.

`O=S(=O)(Nc1cccc(-c2ccc(N3CCCCCC3)nn2)c1)c1ccc(F)cc1`: the survival is inactive: 55%.

As to `Cc1ccccc1NS(=O)(=O)c1nnc(NC(=O)c2ccc(Cl)cc2)s1`, the survival was inactive: 47%.

For the compound `CCOC(=O)c1[nH]c(C)c(CCC(=O)Nc2ccc(C(C)=O)cc2)c1C`, the survival is inactive: 59%.

In the case of `CCC(=O)N1CCc2cc(Br)cc(S(=O)(=O)N3CCCC(C(=O)Nc4cccc(C)c4C)C3)c21` (configuration not stated), the survival was inactive: 125%.

As to `Cc1ccccc1NC(=O)c1c(NC(=O)c2ccco2)sc2c1CCC(C(C)(C)C)C2` (configuration not stated), the survival was inactive: 75%.

For the compound `COc1ccccc1CNC(=O)CSc1nc2nc(C)c(Cc3ccccc3Cl)c(C)n2n1`, the survival was inactive: 65%.

As to `COc1ccc(C(=O)NCCN=C2NS(=O)(=O)c3ccccc32)cc1`, the survival was inactive: 108%.

For `COc1ccc(N2C(=O)CS(=O)(=O)C23C(=O)N(Cc2ccc(F)cc2)c2ccc(C)cc23)cc1` (configuration not stated), the survival was inactive: 83%.

`Cc1ccc(Cl)cc1NC(=O)C1CCCN(S(=O)(=O)c2cccc3cccnc23)C1` (configuration not stated): the survival is inactive: 76%.

As to `Cc1cc(C)c2c(=O)[nH]c(SCC(=O)NCCc3ccccc3)nc2n1`, the survival is inactive: 99%.

Take `CCCCNC(=O)c1nn(-c2ccc(C)cc2)c(=O)n(C)c1=O`: the survival is inactive: 68%.

Consider `COc1ccc(CCNC(=O)c2cccc(-n3cnc4cccnc43)c2C)cc1OC`, for which the survival was inactive: 125%.

Take `CC(CNC(=O)CN1C(=O)COc2ccc(S(=O)(=O)N3CCCCCC3)cc21)c1ccccc1` (configuration not stated): the survival was inactive: 93%.

For `CCc1ccc(Nc2nc(C)cc(C)c2C(N)=O)cc1`, the survival is inactive: 107%.

As for `CC(Oc1ccccc1)C(=O)Nc1ccc(OCc2cc(=O)n3ccsc3n2)cc1` (configuration not stated), the survival is inactive: 66%.

As for `OC(CNc1ccccn1)COc1ccc(OCC(O)CNc2ccccn2)cc1` (configuration not stated), the survival is inactive: 95%.

As to `CCOC(=O)c1c(S(=O)(=O)N2CCCC(C(=O)Nc3cccc(C#N)c3)C2)c(C)n(C)c1C` (configuration not stated), the survival is inactive: 76%.

Turning to `Cc1ccccc1CNC(=O)c1cccc(NC(=O)N2CCSc3ncccc32)c1`, the survival was inactive: 129%.

`Cc1cccc(C)c1NCc1nnc(SCC(N)=O)n1-c1ccccc1`: the survival is inactive: 110%.

With `CCOC(=O)c1c(S(=O)(=O)NCC(=O)Nc2ccc(C)c(N(C)C)c2)c(C)n(C)c1C`, the survival was inactive: 71%.

`NS(=O)(=O)c1ccc(CCNC(=O)c2ccc3nc(CCc4ccccc4)oc3c2)cc1`: the survival was inactive: 70%.

Regarding `Cc1cc2c(cc1S(=O)(=O)N(C)CC(=O)Nc1ccc(C#N)cc1)OCC(=O)N2`, the survival is inactive: 64%.

Turning to `Cc1ccc(S(=O)(=O)c2cn(CC(=O)Nc3ccccc3C)c3cc4c(cc3c2=O)OCO4)cc1`, the survival was inactive: 65%.

Regarding `Cc1ccc(C(=O)N2Cc3ccccc3CC2C(=O)O)cc1` (configuration not stated), the survival was inactive: 111%.

In the case of `CCOc1ccc(CC(=O)Nc2c(C(=O)Nc3ccc(OC)cc3OC)oc3ccccc23)cc1`, the survival is inactive: 77%.

For the compound `Cn1c(=O)c2c(SCC(=O)NCc3ccco3)nc(-c3cccc(F)c3)nc2n(C)c1=O`, the survival is inactive: 71%.

As for `COc1ccc(-c2nc3cc(C)ccn3c2NC(=O)c2ccc(F)cc2)cc1`, the survival was inactive: 73%.

As to `CCn1c(SCC(=O)Nc2ccc(OC)cc2)nnc1C1CC1`, the survival was inactive: 98%.

Regarding `CCOC(=O)N1CCN(Cc2nc3cc([N+](=O)[O-])ccc3n2C(C)C)CC1`, the survival is inactive: 84%.

Turning to `Cc1cccc(N2CCN(C(=O)CN3C(=O)COc4ccc(S(=O)(=O)N5CCC(C)CC5)cc43)CC2C)c1` (configuration not stated), the survival is inactive: 80%.

Turning to `CC(C)c1nc2ccc(C(=O)NCCCN3CCN(c4cccc(Cl)c4)CC3)cc2o1`, the survival is inactive: 71%.

On to `O=C(O)c1ccc2c(c1)C(=O)NC2=O`, for which the survival is inactive: 113%.

Regarding `CCOc1ccc(CNC(=O)c2cnc3sc(N4CCOCC4)nn3c2=O)cc1OC`, the survival is inactive: 136%.

On to `CCOc1ccc(CCNC(=O)c2nc(-c3cccc(F)c3)n3c2CCCCC3)cc1OCC`, for which the survival was inactive: 152%.

For `COC(=O)c1ccc(S(=O)(=O)N(CCO)Cc2cc3cc(OC)c(OC)cc3[nH]c2=O)cc1`, the survival was inactive: 98%.

Consider `Cc1cccc(N2CCN(C(=O)C3CCCN(S(=O)(=O)c4ccc(Br)s4)C3)CC2)c1C` (configuration not stated), for which the survival is inactive: 92%.

With `CCOC(=O)C1CCC(CN(Cc2ccc(Cl)cc2)S(=O)(=O)c2cc(Cl)cc(Cl)c2)CC1` (configuration not stated), the survival is inactive: 59%.

Consider `Cc1ccc2scc(N3CCC(C)CC3)c(=O)c2c1`, for which the survival was inactive: 126%.

Regarding `O=C(Cc1ccccc1)N1CCC(c2nc3ccccc3[nH]2)CC1`, the survival is inactive: 117%.

On to `COc1cccc(NS(=O)(=O)c2ccc3c(c2)[C@H]2C=CC[C@H]2[C@@H](c2ccccc2Cl)N3)c1`, for which the survival is inactive: 131%.

Consider `CCN(CC)CCNC(=O)CSc1nc2nc(C)c(Cc3ccccc3)c(C)n2n1`, for which the survival was inactive: 66%.

For the compound `COc1ccccc1NC(=O)CSc1nc2nccnc2c(=O)n1CCc1c[nH]c2ccccc12`, the survival was inactive: 73%.

For the compound `Cc1cccn2c(Nc3ccccc3)c(-c3cccs3)nc12`, the survival is inactive: 85%.

For the compound `COc1cccc(CNC(=O)Cc2ccc(NC(=O)N3CCSc4ncccc43)cc2)c1OC`, the survival is inactive: 72%.

In the case of `Cc1[nH]c2ccccc2c1C(c1ccccc1)c1ccc(Cl)s1` (configuration not stated), the survival is inactive: 18%.

Turning to `Cc1ccccc1CNc1nc(N(C)C)nc2c1cnn2C`, the survival was inactive: 71%.

For the compound `Cc1ccc(NC(=O)C2CCN(S(=O)(=O)c3ccc4[nH]c(=O)ccc4c3)CC2)cc1C`, the survival is inactive: 89%.

For `O=C1CC(Sc2ccccc2)C(=O)N1c1ccccc1` (configuration not stated), the survival was inactive: 99%.

Regarding `CCCc1cc(N2CCN(c3ccccc3)CC2)n2cnnc2n1`, the survival is inactive: 78%.

Turning to `CCc1ccc(CN(Cc2ccco2)c2cnc(S(C)(=O)=O)nc2C(=O)Nc2c(C)cccc2C)cc1`, the survival was inactive: 70%.

Regarding `CCOc1ccc(CCNC(=O)Cn2c(-c3cccs3)cc3cc(F)ccc32)cc1OCC`, the survival is inactive: 82%.

Regarding `CCc1cccc(CC)c1NC(=O)Cn1c(=O)c(-c2cc(C)ccc2NC(C)=O)nc2ccccc21`, the survival was inactive: 88%.

Take `Cn1c(CSc2nc3ccccc3s2)nnc1SCC(=O)NCCCN1CCOCC1`: the survival is inactive: 99%.

Turning to `O=C1COc2cc(S(=O)(=O)CCC(=O)N3CCN(c4ccccc4F)CC3)c(Cl)cc2N1`, the survival is inactive: 81%.

In the case of `Cn1c(=NC(=O)c2ccc(S(=O)(=O)N3CCCC3)cc2)sc2cc(F)ccc21`, the survival was inactive: 156%.

As for `CCc1ccccc1NCc1nnc2n1CCCCC2`, the survival was inactive: 87%.

Consider `CCOc1ccccc1NC(=O)C1CCN(S(=O)(=O)c2cc(Br)cc3c2N(C(C)=O)CC3)CC1`, for which the survival was inactive: 82%.

The values above are taken from PubChem BioAssay AID463173 (ICCB-Longwood Screening Facility, Harvard Medical School, 2010).
